Experimental data as given in the supplement of paper PMC8728848.
The other results are listed elsewhere or left out.

Experiments:
Assay in all cases: glycan array binding signal (z-score within array); higher = stronger binding
Details in all cases: glycan notation: IUPAC condensed, linker removed
Gal(b1-4)GlcNAc(b1-2)Man = molecular target: Gal(b1-4)GlcNAc(b1-2)Man
How it was run: (§1)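 The binding signal is a Z-score computed within each array and averaged over linkers. Arrays of the same protein sequence at different concentrations or buffers were also averaged together. Data originate from 3228 arrays in the Consortium for Functional Glycomics database, kept only where the protein sequence was available.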

[1] = molecular target: Gal(b1-4)GlcNAc(b1-2)Man(a1-3)Man(b1-4)GlcNAc(b1-4)GlcNAc
How it was run: as §1

[2] = molecular target: Gal(b1-4)GlcNAc(b1-2)Man(a1-3)[Gal(b1-4)GlcNAc(b1-2)Man(a1-6)]Man(b1-4)GlcNAc(b1-4)GlcNAc
How it was run: as §1

[3] = molecular target: Gal(b1-4)GlcNAc(b1-2)Man(a1-3)[Gal(b1-4)GlcNAc(b1-2)Man(a1-6)]Man(b1-4)GlcNAc(b1-4)[Fuc(a1-6)]GlcNAc
How it was run: as §1

[4] = molecular target: Gal(b1-4)GlcNAc(b1-2)Man(a1-3)[Gal(b1-4)GlcNAc(b1-2)Man(a1-6)][Gal(b1-4)GlcNAc(b1-4)]Man(b1-4)GlcNAc(b1-4)[Fuc(a1-6)]GlcNAc
How it was run: as §1

[5] = molecular target: Gal(b1-4)GlcNAc(b1-2)Man(a1-3)[Gal(b1-4)GlcNAc(b1-2)Man(a1-6)][GlcNAc(b1-4)]Man(b1-4)GlcNAc(b1-4)[Fuc(a1-6)]GlcNAc
How it was run: as §1

[6] = molecular target: Gal(b1-4)GlcNAc(b1-2)Man(a1-3)[Gal(b1-4)GlcNAc(b1-2)][GlcNAc(b1-4)]Man(b1-4)GlcNAc(b1-4)GlcNAc
How it was run: as §1

[7] = molecular target: Gal(b1-4)GlcNAc(b1-2)Man(a1-3)[GlcNAc(b1-2)Man(a1-6)]Man(b1-4)GlcNAc(b1-4)GlcNAc
How it was run: as §1

[8] = molecular target: Gal(b1-4)GlcNAc(b1-2)Man(a1-3)[GlcNAc(b1-4)][Gal(b1-4)GlcNAc(b1-2)Man(a1-6)]Man(b1-4)GlcNAc(b1-4)GlcNAc
How it was run: as §1

[9] = molecular target: Gal(b1-4)GlcNAc(b1-2)Man(a1-3)[Man(a1-6)]Man(b1-4)GlcNAc(b1-4)GlcNAc
How it was run: as §1

[10] = molecular target: Gal(b1-4)GlcNAc(b1-2)Man(a1-6)Man(b1-4)GlcNAc(b1-4)GlcNAc
How it was run: as §1

[11] = molecular target: Gal(b1-4)GlcNAc(b1-2)Man(a1-6)[GlcNAc(b1-2)Man(a1-3)]Man(b1-4)GlcNAc(b1-4)GlcNAc
How it was run: as §1

[12] = molecular target: Gal(b1-4)GlcNAc(b1-2)Man(a1-6)[GlcNAc(b1-2)Man(a1-3)]Man(b1-4)GlcNAc(b1-4)[Fuc(a1-6)]GlcNAc
How it was run: as §1

[13] = molecular target: Gal(b1-4)GlcNAc(b1-2)Man(a1-6)[Man(a1-3)]Man(b1-4)GlcNAc(b1-4)GlcNAc
How it was run: as §1

[14] = molecular target: Gal(b1-4)GlcNAc(b1-2)Man(a1-6)[Man(a1-3)]Man(b1-4)GlcNAc(b1-4)[Fuc(a1-6)]GlcNAc
How it was run: as §1

[15] = molecular target: Gal(b1-4)GlcNAc(b1-2)[Gal(b1-4)GlcNAc(b1-4)]Man(a1-3)[Fuc(a1-3)[Gal(b1-4)]GlcNAc(b1-2)Man(a1-6)]Man(b1-4)GlcNAc(b1-4)GlcNAc
How it was run: as §1

[16] = molecular target: Gal(b1-4)GlcNAc(b1-2)[Gal(b1-4)GlcNAc(b1-4)]Man(a1-3)[Gal(b1-4)GlcNAc(b1-2)Man(a1-6)]Man(b1-4)GlcNAc(b1-4)GlcNAc
How it was run: as §1

[17] = molecular target: Gal(b1-4)GlcNAc(b1-2)[Gal(b1-4)GlcNAc(b1-4)]Man(a1-3)[Gal(b1-4)GlcNAc(b1-2)[Gal(b1-4)GlcNAc(b1-6)]Man(a1-6)]Man(b1-4)GlcNAc(b1-4)GlcNAc
How it was run: as §1

[18] = molecular target: Gal(b1-4)GlcNAc(b1-2)[Gal(b1-4)GlcNAc(b1-4)]Man(a1-3)[GlcNAc(b1-4)][Gal(b1-4)GlcNAc(b1-2)Man(a1-6)]Man(b1-4)GlcNAc(b1-4)GlcNAc
How it was run: as §1

[19] = molecular target: Gal(b1-4)GlcNAc(b1-2)[Gal(b1-4)GlcNAc(b1-4)]Man(a1-3)[GlcNAc(b1-4)][Gal(b1-4)GlcNAc(b1-2)[Gal(b1-4)GlcNAc(b1-6)]Man(a1-6)]Man(b1-4)GlcNAc(b1-4)GlcNAc
How it was run: as §1

[20] = molecular target: Gal(b1-4)GlcNAc(b1-2)[Gal(b1-4)GlcNAc(b1-6)]Man(a1-6)[Gal(b1-4)GlcNAc(b1-2)Man(a1-3)]Man(b1-4)GlcNAc(b1-4)GlcNAc
How it was run: as §1

[21] = molecular target: Gal(b1-4)GlcNAc(b1-2)[Gal(b1-4)GlcNAc(b1-6)]Man(a1-6)[Gal(b1-4)GlcNAc(b1-2)Man(a1-3)]Man(b1-4)GlcNAc(b1-4)[Fuc(a1-6)]GlcNAc
How it was run: as §1

[22] = molecular target: Gal(b1-4)GlcNAc(b1-2)[Gal(b1-4)GlcNAc(b1-6)]Man(a1-6)[GlcNAc(b1-4)][Gal(b1-4)GlcNAc(b1-2)Man(a1-3)]Man(b1-4)GlcNAc(b1-4)GlcNAc
How it was run: as §1

[23] = molecular target: Gal(b1-4)GlcNAc(b1-2)[Gal(b1-4)GlcNAc(b1-6)]Man(a1-6)[GlcNAc(b1-4)][Gal(b1-4)GlcNAc(b1-2)[Gal(b1-4)GlcNAc(b1-4)]Man(a1-3)]Man(b1-4)GlcNAc(b1-4)[Fuc(a1-6)]GlcNAc
How it was run: as §1

Gal(b1-4)GlcNAc(b1-3)Fuc = molecular target: Gal(b1-4)GlcNAc(b1-3)Fuc
How it was run: as §1

[24] = molecular target: Gal(b1-4)GlcNAc(b1-3)Gal(b1-3)GalNAc
How it was run: as §1

[25] = molecular target: Gal(b1-4)GlcNAc(b1-3)Gal(b1-3)GlcNAc
How it was run: as §1

[26] = molecular target: Gal(b1-4)GlcNAc(b1-3)Gal(b1-4)Glc
How it was run: as §1

[27] = molecular target: Gal(b1-4)GlcNAc(b1-3)Gal(b1-4)GlcNAc
How it was run: as §1

[28] = molecular target: Gal(b1-4)GlcNAc(b1-3)Gal(b1-4)GlcNAc(b1-2)Man(a1-3)[Gal(b1-4)GlcNAc(b1-3)Gal(b1-4)GlcNAc(b1-2)Man(a1-6)]Man(b1-4)GlcNAc(b1-4)GlcNAc
How it was run: as §1

[29] = molecular target: Gal(b1-4)GlcNAc(b1-3)Gal(b1-4)GlcNAc(b1-2)Man(a1-3)[Gal(b1-4)GlcNAc(b1-3)Gal(b1-4)GlcNAc(b1-2)Man(a1-6)]Man(b1-4)GlcNAc(b1-4)[Fuc(a1-6)]GlcNAc
How it was run: as §1

[30] = molecular target: Gal(b1-4)GlcNAc(b1-3)Gal(b1-4)GlcNAc(b1-2)[Gal(b1-4)GlcNAc(b1-3)Gal(b1-4)GlcNAc(b1-6)]Man(a1-6)[Gal(b1-4)GlcNAc(b1-3)Gal(b1-4)GlcNAc(b1-2)Man(a1-3)]Man(b1-4)GlcNAc(b1-4)GlcNAc
How it was run: as §1

[31] = molecular target: Gal(b1-4)GlcNAc(b1-3)Gal(b1-4)GlcNAc(b1-2)[Gal(b1-4)GlcNAc(b1-3)Gal(b1-4)GlcNAc(b1-6)]Man(a1-6)[Gal(b1-4)GlcNAc(b1-3)Gal(b1-4)GlcNAc(b1-2)Man(a1-3)]Man(b1-4)GlcNAc(b1-4)[Fuc(a1-6)]GlcNAc
How it was run: as §1

[32] = molecular target: Gal(b1-4)GlcNAc(b1-3)Gal(b1-4)GlcNAc(b1-3)Gal(b1-4)Glc
How it was run: as §1

[33] = molecular target: Gal(b1-4)GlcNAc(b1-3)Gal(b1-4)GlcNAc(b1-3)Gal(b1-4)GlcNAc
How it was run: as §1

[34] = molecular target: Gal(b1-4)GlcNAc(b1-3)Gal(b1-4)GlcNAc(b1-3)Gal(b1-4)GlcNAc(b1-2)Man(a1-3)[Gal(b1-4)GlcNAc(b1-3)Gal(b1-4)GlcNAc(b1-3)Gal(b1-4)GlcNAc(b1-2)Man(a1-6)]Man(b1-4)GlcNAc(b1-4)GlcNAc
How it was run: as §1

[35] = molecular target: Gal(b1-4)GlcNAc(b1-3)Gal(b1-4)GlcNAc(b1-3)Gal(b1-4)GlcNAc(b1-2)Man(a1-3)[Gal(b1-4)GlcNAc(b1-3)Gal(b1-4)GlcNAc(b1-3)Gal(b1-4)GlcNAc(b1-2)Man(a1-6)]Man(b1-4)GlcNAc(b1-4)[Fuc(a1-6)]GlcNAc
How it was run: as §1

B1: PNA (Arachis hypogaea), P02872 (protein)
chain: MKPFCVFLTFFLLLAASSKKVDSAETVSFNFNSFSEGNPAINFQGDVTVLSNGNIQLTNLNKVNSVGRVLYAMPVRIWSSATGNVASFLTSFSFEMKDIKDYDPADGIIFFIAPEDTQIPAGSIGGGTLGVSDTKGAGHFVGVEFDTYSNSEYNDPPTDHVGIDVNSVDSVKTVPWNSVSGAVVKVTVIYDSSTKTLSVAVTNDNGDITTIAQVVDLKAKLPERVKFGFSASGSLGGRQIHLIRSWSFTSTLITTTRRSIDNNEKKIMNMASA
glycan array binding signal (z-score) (Gal(b1-4)GlcNAc(b1-2)Man): -0.245 | glycan array binding signal (z-score) [1]: -0.166 | glycan array binding signal (z-score) [2]: -0.134 | glycan array binding signal (z-score) [3]: -0.153 | glycan array binding signal (z-score) [4]: -0.122 | glycan array binding signal (z-score) [5]: -0.205 | glycan array binding signal (z-score) [6]: -0.166 | glycan array binding signal (z-score) [7]: -0.204 | glycan array binding signal (z-score) [8]: -0.309 | glycan array binding signal (z-score) [9]: -0.176 | glycan array binding signal (z-score) [10]: -0.171 | glycan array binding signal (z-score) [11]: -0.211 | glycan array binding signal (z-score) [12]: -0.055 | glycan array binding signal (z-score) [13]: 0.079 | glycan array binding signal (z-score) [14]: -0.195 | glycan array binding signal (z-score) [15]: -0.114 | glycan array binding signal (z-score) [16]: -0.118 | glycan array binding signal (z-score) [17]: 0.12 | glycan array binding signal (z-score) [18]: -0.173 | glycan array binding signal (z-score) [19]: -0.258 | glycan array binding signal (z-score) [20]: -0.36 | glycan array binding signal (z-score) [21]: -0.186 | glycan array binding signal (z-score) [22]: -0.295 | glycan array binding signal (z-score) [23]: -0.168 | glycan array binding signal (z-score) (Gal(b1-4)GlcNAc(b1-3)Fuc): -0.195 | glycan array binding signal (z-score) [24]: -0.167 | glycan array binding signal (z-score) [25]: -0.117 | glycan array binding signal (z-score) [26]: -0.198 | glycan array binding signal (z-score) [27]: -0.181 | glycan array binding signal (z-score) [28]: 0.469 | glycan array binding signal (z-score) [29]: -0.183 | glycan array binding signal (z-score) [30]: -0.2 | glycan array binding signal (z-score) [31]: -0.186 | glycan array binding signal (z-score) [32]: -0.195 | glycan array binding signal (z-score) [33]: -0.157 | glycan array binding signal (z-score) [34]: 0.549 | glycan array binding signal (z-score) [35]: -0.247
